In the supplement of paper PMC11417369:
± gives the standard deviation of the averaged measurements. This is one part of the list.

What follows are sequences tested on PfAP2-EXP AP2 domain (GST-tagged) (assay: gcPBM binding intensity (ln(normalized median fluorescence intensity)); higher = stronger DNA binding).
Procedure, shortened: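 Probes on an Agilent 4 × 180k array were primer-extended, double-stranded and 36 bp long, taken from intergenic genomic regions, with negative controls added. GST-tagged P. falciparum DNA-binding domains from E. coli, about 25 μg on average, were applied to the array for 1 h in 1× PBS containing 1% milk, 0.2 mg/ml BSA, 0.5% salmon testes DNA and 0.03% Triton X-100. Binding intensity, obtained after Alexa488 anti-GST antibody detection and a 488 nm scan, is the highest Masliner-normalised natural-log median intensity across replicate spots of either probe orientation.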
“AAGTATTTCCTAAAATGTACATATAAATAAGTATAT [XGTACX_site1282]” was tested, and the “gcPBM binding intensity (ln)” value was 8.44 ± 0.49.
In the case of “CATATATTTTGAAACACACACATATAAAATATACAT [CACACA_site6664]”, the “gcPBM binding intensity (ln)” value is reported as 8.84 ± 0.37.
With “TTATTATTTATTTTTTATTATTATTATTTTTTTTTA [XGTACX_negctrl_site76]” the “gcPBM binding intensity (ln)” value was 8.36 ± 0.42.
For “GAAAAGATTTAAAAATGTACAAAAGAAAAAAAAAAA [XGTACX_site6916]”, the “gcPBM binding intensity (ln)” value was 8.63 ± 0.51.
For “TTAAAATTAAAATACGTACACACCTTATCTTTTTGG [CACACA_site7982]”, the “gcPBM binding intensity (ln)” value was 8.48 ± 0.3.
In the case of “AATATGCCTCCCCAAAAAAAATATATATATATTTAT [GTGCAC_negctrl_site716]”, the “gcPBM binding intensity (ln)” value is reported as 9.78 ± 0.98.
In the case of “TGGTTATAATTGTACGCATGTAATTACATATTCTCT [TGCATGCA_site599]”, the “gcPBM binding intensity (ln)” value is reported as 8.99 ± 0.25.
For “TATATTTAAATATATACACACATTATCATTTTCATA [CACACA_site1708]”, the “gcPBM binding intensity (ln)” value was 8.28 ± 0.57.
In the case of “TATCATTTGGTCTTTTACTTTTTCTGTTTTTTTTTT [CACACA_negctrl_site976]”, the “gcPBM binding intensity (ln)” value is reported as 8.87 ± 0.35.
With “TTTTTTACTATATCAATTACAAAACAAAAAAAAAAA [GTGCAC_negctrl_site683]” the “gcPBM binding intensity (ln)” value was 8.35 ± 0.42.
In the case of “TGATAAAATATTAAATTATTTCTTTATTTAAAGATT [CACACA_negctrl_site370]”, the “gcPBM binding intensity (ln)” value is reported as 7.67 ± 0.37.
“AAATATGTTTCAAAAAGTACATTTCTATCTTTTTTT [XGTACX_site7178]” was tested, and the “gcPBM binding intensity (ln)” value was 8.51 ± 0.42.
With “TACTATAAAATGGAATGTACACATAAATATATCTAA [XGTACX_site6137]” the “gcPBM binding intensity (ln)” value was 8.51 ± 0.3.
With “ATATGATGTAAAAGCACACATATATATATATATATA [CACACA_site4018]” the “gcPBM binding intensity (ln)” value was 10.1 ± 0.44.
In the case of “GTTTATAACTATGTGTGTACACATTAATCGTTTTTC [XGTACX_site4364]”, the “gcPBM binding intensity (ln)” value is reported as 8.93 ± 0.23.
“TTGTATAAATATGTATGTATATAATATATGTAAAGA [TGCATGCA_negctrl_site93]” was tested, and the “gcPBM binding intensity (ln)” value was 8.61 ± 0.49.
“CACATACACATACACATACACACGCATAGAAACATA [CACACA_site2136]” was tested, and the “gcPBM binding intensity (ln)” value was 8.94 ± 0.22.
For “AAATCGTGTACATTGACACACATAATTTTTTTTATA [CACACA_site2463]”, the “gcPBM binding intensity (ln)” value was 8.43 ± 0.3.
With “AATATATTTATATAGTGTACATTTTTTATATATGTA [XGTACX_site8142]” the “gcPBM binding intensity (ln)” value was 8.47 ± 0.34.
With “TATTAATTTTTATTATGTACATAAATAATTTATATT [XGTACX_site5456]” the “gcPBM binding intensity (ln)” value was 8.39 ± 0.28.
For “AATATATATATACATACATGCATACATATATATATA [TGCATGCA_site784]”, the “gcPBM binding intensity (ln)” value was 9.8 ± 0.14.
For “ATAATATATTATTATAGTACTTTATTTTATTTTATG [XGTACX_site2387]”, the “gcPBM binding intensity (ln)” value was 8.67 ± 0.38.
“GGATAGATCATTTACACACACAAAAAAAAAAAAAAA [CACACA_site2139]” was tested, and the “gcPBM binding intensity (ln)” value was 8.19 ± 0.52.
With “TAAGGAAAAAGAAAAAGTACATTATATAATAAATAG [XGTACX_site3282]” the “gcPBM binding intensity (ln)” value was 8.71 ± 0.46.
With “AAAAAAAATAAAATGAATAAATAAGAATTACATATT [CACACA_negctrl_site863]” the “gcPBM binding intensity (ln)” value was 8.25 ± 0.41.
For “CAAATATATGTTTTCACACACAAAAGAAATGAAACC [CACACA_site2162]”, the “gcPBM binding intensity (ln)” value was 8.67 ± 0.34.
For “AAAAAGAAGATATATACACACCAAAAAAAAAAAAAA [CACACA_site7471]”, the “gcPBM binding intensity (ln)” value was 8.26 ± 0.45.
For “TAAAATAAAACAAACACACACACACCCCCACAAAAA [CACACA_site3850]”, the “gcPBM binding intensity (ln)” value was 9.97 ± 0.26.
“TATTTACATGTAAAAGGTACACACATTATATATACA [XGTACX_site2157]” was tested, and the “gcPBM binding intensity (ln)” value was 8.75 ± 0.38.
With “TTTATTATTTTTTGTAGTACTTTATATAAAAGTTCT [XGTACX_site4494]” the “gcPBM binding intensity (ln)” value was 8.79 ± 0.28.
For “ATACACTTTTATATATCAATACATTATGTATTAAGT [CACACA_negctrl_site421]”, the “gcPBM binding intensity (ln)” value was 8.81 ± 0.42.
In the case of “CCTCTTTATTTTAATTGTACATTTTTGTAGGTTTTT [XGTACX_site7130]”, the “gcPBM binding intensity (ln)” value is reported as 8.82 ± 0.45.
In the case of “TCCTTTTTTTTGTAATGTACTTAGTTTGGTTATATG [XGTACX_site8208]”, the “gcPBM binding intensity (ln)” value is reported as 8.85 ± 0.49.
For “AAAACAAACCCATTTACACACATAAATAAATCAATT [CACACA_site6126]”, the “gcPBM binding intensity (ln)” value was 8.46 ± 0.62.
In the case of “ATGTATATATATATATGTACTAATTAGTAATTTACG [XGTACX_site6276]”, the “gcPBM binding intensity (ln)” value is reported as 8.78 ± 0.36.
With “TGAATGTAAGAAAATACACACTAGTATAGTAACACC [CACACA_site5131]” the “gcPBM binding intensity (ln)” value was 8.96 ± 0.42.
With “TTTTTATTACTTCTCTGTACTCAGGAAAATAAATAT [XGTACX_site2092]” the “gcPBM binding intensity (ln)” value was 8.46 ± 0.38.
“TTGATTATAATTAGTACACACAAAATACATGCGGGG [CACACA_site2277]” was tested, and the “gcPBM binding intensity (ln)” value was 9.49 ± 0.35.
For “AAATATATAATACATATGTAATATGCATATATATAT [GTGCAC_negctrl_site450]”, the “gcPBM binding intensity (ln)” value was 9.72 ± 0.16.
With “AAGTATAACCTTTATAATAATGACATGACCGATTTT [CACACA_negctrl_site395]” the “gcPBM binding intensity (ln)” value was 8.26 ± 0.34.
“AAGCATATTATAAACACACACTGTATAAAGATATAT [CACACA_site6277]” was tested, and the “gcPBM binding intensity (ln)” value was 8.6 ± 0.42.
In the case of “ATAATACGAATTTGTAGTACATTTATAATAACATGA [XGTACX_site2614]”, the “gcPBM binding intensity (ln)” value is reported as 8.37 ± 0.17.
With “TATAACCGAATGTGTACACAAAATAATGTTATATAT [CACACA_site5627]” the “gcPBM binding intensity (ln)” value was 8.96 ± 0.25.
In the case of “ATATAACGAATAATTACACACTATAAAAAAAGATCT [CACACA_site2862]”, the “gcPBM binding intensity (ln)” value is reported as 8.6 ± 0.45.
For “TAAAAAACTTCGTGTTCACACATGTACTATATTATT [CACACA_site4796]”, the “gcPBM binding intensity (ln)” value was 8.44 ± 0.36.
For “ACCCATAAGATAATTACACACAATACATCCCTATAT [CACACA_site5262]”, the “gcPBM binding intensity (ln)” value was 8.71 ± 0.65.
For “TTTTTTTTTTTTTGTTGTACATTAAATATATTATTA [XGTACX_site7254]”, the “gcPBM binding intensity (ln)” value was 8.54 ± 0.52.
In the case of “TTATTATATTCTCCTTCACACACAAAAATATTTCAT [CACACA_site8738]”, the “gcPBM binding intensity (ln)” value is reported as 8.77 ± 0.45.
In the case of “TGAAAAATTACAAAAATAATAAAATGAAATAATAAA [GTGCAC_negctrl_site53]”, the “gcPBM binding intensity (ln)” value is reported as 8.46 ± 0.28.
With “TAAAAGTTATAAGAGTGTACGTATATTTATATATCA [XGTACX_site2972]” the “gcPBM binding intensity (ln)” value was 8.53 ± 0.24.
“TGGAAAAATAGGCACACACACATATATACATATATA [CACACA_site1297]” was tested, and the “gcPBM binding intensity (ln)” value was 8.61 ± 0.58.
In the case of “TTTTAATAACCAATCCGTACATATAATCTTTATATT [XGTACX_site536]”, the “gcPBM binding intensity (ln)” value is reported as 8.48 ± 0.25.
For “AGGACTAATATTTGAACACACATATAACATATACAT [CACACA_site7803]”, the “gcPBM binding intensity (ln)” value was 8.54 ± 0.46.
For “AACTATAAATATAAATGTACACATATGTAATATATA [XGTACX_site6085]”, the “gcPBM binding intensity (ln)” value was 8.48 ± 0.31.
For “CTTTTAAATTATTTTTGTACATAATTATATATATAT [XGTACX_site4128]”, the “gcPBM binding intensity (ln)” value was 9.4 ± 0.32.
“AAAAGGAAAATTTTCTTAGTAACTGCATTAAGAGAT [GTGCAC_negctrl_site675]” was tested, and the “gcPBM binding intensity (ln)” value was 8.89 ± 0.3.
